GI50 and TGI data for four compounds are collected here from PubChem BioAssay (NCI).

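Method: 48-hour compound exposure of cells in 96-well plates, five concentrations, linear interpolation of endpoints. GI50: concentration for 50% inhibition of growth. The concentration for full growth arrest is given as TGI.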

This assay relates to NCI-H322M lung. Kind of assay: growth of human tumour cells (NCI), 48 h.
As for `CC[C@]12C=CCN3CC[C@@]4(c5ccc(OC)cc5N(C)[C@H]4[C@@](O)(C(=O)OC)[C@@H]1OC(=O)CCCC[P+](c1ccc(OC)cc1)(c1ccc(OC)cc1)c1ccc(OC)cc1)[C@@H]32`, the GI50 is 2.79 µM and the TGI is 11.1 µM.

In the case of `CNS(=O)(=O)N1CCc2c(Br)c3c(c(OC)c2C1CCc1ccccc1)OCO3` (stereo not drawn), the GI50 is 18.3 µM and the TGI was above 100 µM.

For the compound `COc1ccsc1/C=N/NC(=O)c1[nH]c2ccc(Br)cc2c1-c1ccccc1`, the GI50 was 0.809 µM and the TGI was above 78.2 µM.

On to `COc1cc(-c2ccc3ncnc(N4CCc5ccc(Cl)cc54)c3c2)cnc1Cl`, for which the GI50 is 2.55 µM and the TGI turned out to be 11.8 µM.
